This is one part of the list.
Columns and labels:
HSkMC = human skeletal muscle cells; assay: cytotoxicity call (relative viability < 0.9); conditions: 10 µM
HepG2 = assay: cytotoxicity call (relative viability < 0.9); conditions: 10 µM
S. aureus RN4220 = assay: growth inhibition call (relative growth <= 0.2); conditions: 50 µM

COc1ccc(NC(=O)N(C)C[C@@H]2OCCCC[C@@H](C)Oc3ccc(NC(=O)Nc4cccc5ccccc45)cc3C(=O)N([C@@H](C)CO)C[C@@H]2C)cc1
inactive: cytotoxicity call (HSkMC) | cytotoxicity call (HepG2) | growth inhibition call (S. aureus RN4220)

C[C@@H]1CN([C@@H](C)CO)C(=O)c2cc(NC(=O)c3ccncc3)ccc2O[C@@H](C)CCCCO[C@H]1CN(C)C(=O)Nc1ccc(F)cc1
inactive: cytotoxicity call (HSkMC) | cytotoxicity call (HepG2) | growth inhibition call (S. aureus RN4220)

Cc1onc(-c2ccccc2)c1CN
inactive: cytotoxicity call (HSkMC) | cytotoxicity call (HepG2) | growth inhibition call (S. aureus RN4220)

Cc1noc(C)c1S(=O)(=O)N(C)C[C@H]1Oc2ccc(NC(=O)CCN3CCOCC3)cc2CC(=O)N([C@H](C)CO)C[C@H]1C
inactive: cytotoxicity call (HSkMC) | cytotoxicity call (HepG2) | growth inhibition call (S. aureus RN4220)

COC(=O)C1CCN(S(=O)(=O)c2c(C)n(C)c(=O)n(C)c2=O)CC1
inactive: cytotoxicity call (HSkMC) | cytotoxicity call (HepG2) | growth inhibition call (S. aureus RN4220)

C[C@H](CO)N1C[C@H](C)[C@@H](CN(C)C(=O)Nc2cccc3ccccc23)Oc2ccc(NC(=O)CCC(F)(F)F)cc2CC1=O
inactive: cytotoxicity call (HSkMC) | cytotoxicity call (HepG2) | growth inhibition call (S. aureus RN4220)

COc1ccc(NC(=O)Nc2ccc3c(c2)C(=O)N([C@@H](C)CO)C[C@H](C)[C@H](CN(C)C(=O)Nc2ccc(OC)cc2)OCCCC[C@@H](C)O3)cc1
inactive: cytotoxicity call (HSkMC) | cytotoxicity call (HepG2) | growth inhibition call (S. aureus RN4220)

COc1ccc(S(=O)(=O)Nc2ccc3c(c2)CC(=O)N([C@H](C)CO)C[C@@H](C)[C@@H](CN(C)S(=O)(=O)c2ccc(OC)cc2)O3)cc1
inactive: cytotoxicity call (HSkMC) | cytotoxicity call (HepG2) | growth inhibition call (S. aureus RN4220)

COc1ccc(S(=O)(=O)N(C)C[C@H]2OCCCC[C@@H](C)Oc3ccc(NC(=O)Nc4ccc5c(c4)OCO5)cc3C(=O)N([C@@H](C)CO)C[C@H]2C)cc1
inactive: cytotoxicity call (HSkMC) | cytotoxicity call (HepG2) | growth inhibition call (S. aureus RN4220)

C[C@H]1CN([C@@H](C)CO)C(=O)c2cc(NC(=O)c3ccncc3)ccc2O[C@H]1CN(C)Cc1ccc(-c2ccccc2)cc1
inactive: cytotoxicity call (HSkMC) | cytotoxicity call (HepG2) | growth inhibition call (S. aureus RN4220)

COc1cccc(S(=O)(=O)Nc2ccc3c(c2)[C@H]2C[C@@H](CC(=O)N4CCCCC4)O[C@H](CO)[C@H]2O3)c1
inactive: cytotoxicity call (HSkMC) | cytotoxicity call (HepG2) | growth inhibition call (S. aureus RN4220)

COc1ccc(-c2coc3cc(OC)cc(OC)c3c2=O)cc1
inactive: cytotoxicity call (HSkMC) | cytotoxicity call (HepG2) | growth inhibition call (S. aureus RN4220)

CCCC(=O)Nc1ccc2c(c1)OC[C@@H](C)N(C(=O)Cc1ccccn1)C[C@@H](C)[C@H](OC)CN(C)C2=O
inactive: cytotoxicity call (HSkMC) | cytotoxicity call (HepG2) | growth inhibition call (S. aureus RN4220)

Cn1c(=O)c2c(nc(SCC(=O)NC(C)(C)C)n2C)n(C)c1=O
inactive: cytotoxicity call (HSkMC) | cytotoxicity call (HepG2) | growth inhibition call (S. aureus RN4220)

Cn1c(=O)n2n(c1=O)[C@H](C1CC1)C=C1CN3[C@@H]([C@H](Cc4ccccc4)OC(=O)[C@@H]3Cc3ccc(-n4cc(C(=O)NO)nn4)cc3)[C@@H]12
inactive: cytotoxicity call (HSkMC) | cytotoxicity call (HepG2) | growth inhibition call (S. aureus RN4220)

C[C@H](CO)N1C[C@H](C)[C@@H](CN(C)CC2CC2)OCCCC[C@H](C)Oc2ccc(NS(=O)(=O)c3ccc(Cl)cc3)cc2C1=O
inactive: cytotoxicity call (HSkMC) | cytotoxicity call (HepG2) | growth inhibition call (S. aureus RN4220)

C[C@@H]1CN([C@H](C)CO)C(=O)c2cccc(NC(=O)Nc3ccc(F)cc3)c2O[C@@H]1CN(C)Cc1ccc(-c2ccccc2)cc1
inactive: cytotoxicity call (HSkMC) | cytotoxicity call (HepG2) | growth inhibition call (S. aureus RN4220)

COc1ccc(S(=O)(=O)Nc2cccc3c2O[C@H](CN(C)S(=O)(=O)c2ccc(OC)cc2)[C@@H](C)CN([C@H](C)CO)C3=O)cc1
inactive: cytotoxicity call (HSkMC) | cytotoxicity call (HepG2) | growth inhibition call (S. aureus RN4220)

C[C@H]1CN([C@@H](C)CO)C(=O)c2cc(NC(=O)CCN3CCOCC3)ccc2O[C@@H]1CN(C)Cc1ccncc1
inactive: cytotoxicity call (HSkMC) | cytotoxicity call (HepG2) | growth inhibition call (S. aureus RN4220)

CCc1ccc(OC[C@@H](O)CN)cc1
inactive: cytotoxicity call (HSkMC) | cytotoxicity call (HepG2) | growth inhibition call (S. aureus RN4220)

COc1cccc(S(=O)(=O)N(C)C[C@@H]2Oc3ncc(C#CC(C)(C)O)cc3C(=O)N([C@H](C)CO)C[C@@H]2C)c1
inactive: cytotoxicity call (HSkMC) | cytotoxicity call (HepG2) | growth inhibition call (S. aureus RN4220)

C[C@@H]1CN([C@@H](C)CO)C(=O)c2cc(C#Cc3ccccn3)cnc2O[C@@H]1CN(C)C(=O)CCN1CCCCC1
inactive: cytotoxicity call (HSkMC) | cytotoxicity call (HepG2) | growth inhibition call (S. aureus RN4220)

C[C@@H]1CN([C@@H](C)CO)C(=O)c2c(c3ccccc3n2C)-c2ccccc2CO[C@H]1CN(C)C(=O)Nc1ccc2c(c1)OCO2
inactive: cytotoxicity call (HSkMC) | cytotoxicity call (HepG2) | growth inhibition call (S. aureus RN4220)

COc1ccc(-c2cnc3c(c2)C(=O)N([C@@H](C)CO)C[C@H](C)[C@@H](CN(C)C(=O)Cc2ccccn2)O3)cc1
inactive: cytotoxicity call (HSkMC) | cytotoxicity call (HepG2) | growth inhibition call (S. aureus RN4220)

C[C@@H]1OC2=C(Cl)C(=O)N3CCC[C@H]3C[C@@]21O
inactive: cytotoxicity call (HSkMC) | cytotoxicity call (HepG2) | growth inhibition call (S. aureus RN4220)

From the antibiotic and cytotoxicity screens of Wong et al. (2023)
